Article PMC11338640
No constants are given. Whether binding was seen depends on the method and setting. Binding seen in cells or lysates may run through a third protein. Some entries that bind do so weakly or less than the wild type. For some of these results: Sequences can lack the tags named with a protein.

Sequences of proteins named here, by UniProt entry; tags and fusion partners are left off.
UniProt A7MCY6: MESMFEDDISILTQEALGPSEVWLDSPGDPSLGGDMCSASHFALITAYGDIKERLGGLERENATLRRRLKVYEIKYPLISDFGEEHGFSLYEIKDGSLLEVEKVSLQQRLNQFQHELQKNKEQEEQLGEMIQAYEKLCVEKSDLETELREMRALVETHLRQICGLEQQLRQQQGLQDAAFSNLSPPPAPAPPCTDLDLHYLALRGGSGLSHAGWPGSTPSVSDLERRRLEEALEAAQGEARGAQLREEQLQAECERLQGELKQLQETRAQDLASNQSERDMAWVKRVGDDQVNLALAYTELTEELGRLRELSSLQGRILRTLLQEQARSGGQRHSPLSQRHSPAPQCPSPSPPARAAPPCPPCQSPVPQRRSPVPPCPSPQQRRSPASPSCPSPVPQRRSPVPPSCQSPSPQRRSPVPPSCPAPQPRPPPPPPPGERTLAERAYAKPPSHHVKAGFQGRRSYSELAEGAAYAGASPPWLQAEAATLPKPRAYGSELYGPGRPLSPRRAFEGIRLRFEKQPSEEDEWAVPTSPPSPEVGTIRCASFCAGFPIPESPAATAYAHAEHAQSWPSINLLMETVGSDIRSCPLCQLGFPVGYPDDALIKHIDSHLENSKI
UniProt Q9H6S1: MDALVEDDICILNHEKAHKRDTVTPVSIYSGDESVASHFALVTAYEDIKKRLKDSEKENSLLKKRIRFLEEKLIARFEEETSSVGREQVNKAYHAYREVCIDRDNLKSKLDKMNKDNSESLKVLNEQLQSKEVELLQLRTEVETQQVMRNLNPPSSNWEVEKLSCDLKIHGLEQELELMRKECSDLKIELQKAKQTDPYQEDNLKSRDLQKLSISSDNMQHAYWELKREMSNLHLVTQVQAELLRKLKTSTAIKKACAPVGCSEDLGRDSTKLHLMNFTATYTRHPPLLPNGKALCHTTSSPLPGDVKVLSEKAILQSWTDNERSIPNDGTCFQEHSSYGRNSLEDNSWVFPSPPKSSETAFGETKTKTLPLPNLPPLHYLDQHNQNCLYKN
UniProt Q7Z434: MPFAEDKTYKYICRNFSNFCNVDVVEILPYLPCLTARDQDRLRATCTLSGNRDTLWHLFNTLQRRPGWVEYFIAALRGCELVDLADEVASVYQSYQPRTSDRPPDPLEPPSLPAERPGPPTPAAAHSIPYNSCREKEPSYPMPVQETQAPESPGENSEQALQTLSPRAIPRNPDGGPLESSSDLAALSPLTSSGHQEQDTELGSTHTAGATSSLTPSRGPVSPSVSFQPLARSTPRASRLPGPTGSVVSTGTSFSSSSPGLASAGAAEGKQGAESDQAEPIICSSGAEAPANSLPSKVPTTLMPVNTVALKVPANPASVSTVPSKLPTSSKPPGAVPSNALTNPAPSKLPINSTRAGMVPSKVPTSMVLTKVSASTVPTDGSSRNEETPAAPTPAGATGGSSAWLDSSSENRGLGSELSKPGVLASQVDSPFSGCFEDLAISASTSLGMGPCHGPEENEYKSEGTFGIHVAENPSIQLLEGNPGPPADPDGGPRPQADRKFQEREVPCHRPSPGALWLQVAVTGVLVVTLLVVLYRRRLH
UniProt Q98256: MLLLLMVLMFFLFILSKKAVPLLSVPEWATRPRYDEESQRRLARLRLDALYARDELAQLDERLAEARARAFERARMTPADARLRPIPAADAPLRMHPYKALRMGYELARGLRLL

Experiments:
[1] = molecular target: TANK-binding kinase 1-binding protein 1 (TBKBP1), FLAG-tagged (UniProt A7MCY6); assay: co-IP; HEK293T co-transfected (8 µg plasmid in all) with the HA-tagged MCV protein and FLAG-tagged signalling components; lysates precipitated on anti-FLAG M2 affinity gel overnight at 4 °C, eluted with FLAG peptide, blotted with anti-HA and anti-FLAG
[2] = molecular target: T1, IκB kinase epsilon (IKKε), FLAG-tagged (UniProt Q14164); assay: as above
T1 sequence: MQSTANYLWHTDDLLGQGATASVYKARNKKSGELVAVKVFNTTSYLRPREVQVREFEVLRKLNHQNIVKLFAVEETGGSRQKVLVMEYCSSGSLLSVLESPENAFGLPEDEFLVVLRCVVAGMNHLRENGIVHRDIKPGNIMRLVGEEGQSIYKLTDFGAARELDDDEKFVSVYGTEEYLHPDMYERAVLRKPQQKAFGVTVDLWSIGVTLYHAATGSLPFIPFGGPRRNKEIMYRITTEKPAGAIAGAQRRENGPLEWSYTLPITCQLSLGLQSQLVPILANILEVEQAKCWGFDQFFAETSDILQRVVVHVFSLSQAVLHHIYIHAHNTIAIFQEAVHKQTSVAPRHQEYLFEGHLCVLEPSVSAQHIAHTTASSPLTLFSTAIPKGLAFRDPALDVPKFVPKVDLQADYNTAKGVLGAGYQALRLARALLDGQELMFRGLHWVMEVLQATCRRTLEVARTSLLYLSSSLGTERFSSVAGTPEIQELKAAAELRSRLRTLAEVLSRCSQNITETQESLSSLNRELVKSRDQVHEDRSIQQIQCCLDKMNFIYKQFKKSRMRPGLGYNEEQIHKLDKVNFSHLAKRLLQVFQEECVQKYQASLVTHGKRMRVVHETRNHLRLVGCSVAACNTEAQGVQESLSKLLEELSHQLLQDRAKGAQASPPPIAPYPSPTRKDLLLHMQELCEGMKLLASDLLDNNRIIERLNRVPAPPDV

[3] = molecular target: NF-kappa-B-activating kinase-associated protein 1 (NAP1), FLAG-tagged (UniProt Q9H6S1); assay: as above
[4] = molecular target: mitochondrial antiviral-signalling protein (MAVS), FLAG-tagged (UniProt Q7Z434); assay: as above
[5] = molecular target: endogenous TANK-binding kinase 1-binding protein 1 (TBKBP1) of HEK293T cells (human (endogenous in HEK293T)) (UniProt A7MCY6); assay: co-IP; HEK293T transfected with pCEP4-MC089-HA; immunoprecipitation with antibody to endogenous MAVS or endogenous TBKBP1
[6] = molecular target: endogenous mitochondrial antiviral-signalling protein (MAVS) of HEK293T cells (human (endogenous in HEK293T)) (UniProt Q7Z434); assay: as above
[7] = molecular target: T2, TRAF family member-associated NF-kappa-B activator (TANK), FLAG-tagged (UniProt Q92844); assay: co-IP; HEK293T co-transfected (8 µg plasmid in all) with the HA-tagged MCV protein and FLAG-tagged signalling components; lysates precipitated on anti-FLAG M2 affinity gel overnight at 4 °C, eluted with FLAG peptide, blotted with anti-HA and anti-FLAG
T2 sequence: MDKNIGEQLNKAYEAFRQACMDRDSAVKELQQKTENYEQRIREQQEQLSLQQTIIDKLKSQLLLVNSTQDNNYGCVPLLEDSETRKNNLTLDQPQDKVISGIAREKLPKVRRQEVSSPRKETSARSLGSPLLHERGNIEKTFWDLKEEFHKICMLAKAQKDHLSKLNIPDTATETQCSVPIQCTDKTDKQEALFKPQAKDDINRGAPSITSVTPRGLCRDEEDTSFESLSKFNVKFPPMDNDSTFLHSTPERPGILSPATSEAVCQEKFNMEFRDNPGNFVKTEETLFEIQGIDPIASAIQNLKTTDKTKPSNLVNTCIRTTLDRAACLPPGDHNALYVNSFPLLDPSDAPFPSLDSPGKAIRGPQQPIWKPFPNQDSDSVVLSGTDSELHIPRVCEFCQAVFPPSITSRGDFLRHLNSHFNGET

IKKβ, FLAG-tagged = molecular target: T3, IKKβ, FLAG-tagged (UniProt O14920); assay: as above
T3 sequence: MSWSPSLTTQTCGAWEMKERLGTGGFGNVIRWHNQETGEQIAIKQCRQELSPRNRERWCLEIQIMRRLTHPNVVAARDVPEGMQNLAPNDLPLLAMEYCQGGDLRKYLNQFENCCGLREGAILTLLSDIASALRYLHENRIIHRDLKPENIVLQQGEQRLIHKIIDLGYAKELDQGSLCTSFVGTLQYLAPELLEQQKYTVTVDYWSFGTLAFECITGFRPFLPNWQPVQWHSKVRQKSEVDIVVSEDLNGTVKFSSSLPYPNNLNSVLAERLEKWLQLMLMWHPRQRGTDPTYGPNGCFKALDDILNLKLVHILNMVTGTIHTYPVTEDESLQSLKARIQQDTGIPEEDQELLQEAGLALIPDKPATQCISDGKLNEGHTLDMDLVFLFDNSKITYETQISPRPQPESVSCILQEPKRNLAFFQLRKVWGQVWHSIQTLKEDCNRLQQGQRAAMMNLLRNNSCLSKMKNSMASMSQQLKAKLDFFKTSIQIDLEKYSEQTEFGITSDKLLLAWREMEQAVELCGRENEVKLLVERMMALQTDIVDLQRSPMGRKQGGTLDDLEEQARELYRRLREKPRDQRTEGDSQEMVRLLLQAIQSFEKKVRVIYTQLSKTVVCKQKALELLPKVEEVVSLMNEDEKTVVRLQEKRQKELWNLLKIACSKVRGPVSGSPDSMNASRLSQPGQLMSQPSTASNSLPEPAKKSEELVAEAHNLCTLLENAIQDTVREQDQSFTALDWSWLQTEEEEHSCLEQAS

[8] = molecular target: T4, TANK-binding kinase-1 (TBK1), FLAG-tagged (UniProt Q9UHD2); assay: as above
T4 sequence: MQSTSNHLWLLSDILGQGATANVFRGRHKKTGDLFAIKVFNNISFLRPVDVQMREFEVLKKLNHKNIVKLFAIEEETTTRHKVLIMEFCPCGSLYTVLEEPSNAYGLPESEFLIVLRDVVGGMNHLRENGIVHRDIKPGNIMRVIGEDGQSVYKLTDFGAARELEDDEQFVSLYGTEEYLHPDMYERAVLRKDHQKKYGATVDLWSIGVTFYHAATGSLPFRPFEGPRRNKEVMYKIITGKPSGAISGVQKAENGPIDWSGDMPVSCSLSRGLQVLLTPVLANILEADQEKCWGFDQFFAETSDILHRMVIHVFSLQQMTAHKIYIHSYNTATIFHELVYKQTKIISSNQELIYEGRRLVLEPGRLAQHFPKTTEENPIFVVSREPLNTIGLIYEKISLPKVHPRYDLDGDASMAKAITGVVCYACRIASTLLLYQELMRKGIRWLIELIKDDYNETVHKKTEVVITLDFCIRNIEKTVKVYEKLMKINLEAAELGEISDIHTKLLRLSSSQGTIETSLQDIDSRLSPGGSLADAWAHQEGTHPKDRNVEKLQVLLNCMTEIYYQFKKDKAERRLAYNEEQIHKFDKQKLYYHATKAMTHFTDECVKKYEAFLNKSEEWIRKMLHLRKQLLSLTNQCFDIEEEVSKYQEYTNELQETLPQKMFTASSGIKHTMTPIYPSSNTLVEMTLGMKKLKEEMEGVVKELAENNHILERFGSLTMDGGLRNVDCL

Substance	binding [1]	binding [2]	binding [3]	binding [4]	binding [5]	binding [6]	binding [7]	binding (IKKβ, FLAG-tagged)	binding [8]
MC020 (molluscum contagiosum virus protein MC020, negative control) (from UniProt O40975 1-139)	no binding	no binding	no binding	no binding					
MC089-HA (molluscum contagiosum virus protein MC089, C-terminal HA tag, pCEP4) (from UniProt Q98256 1-114)	binds	binds	binds	binds	binds	binds	no binding	no binding	no binding
